Target: soluble truncated form of human ACE2 (Homo sapiens, UniProt Q9BYF1)
Conditions: 50 nM ACE-2, 50 μM peptide, room temperature, 2 hours, MALDI-TOF

Chain of soluble truncated form of human ACE2 (Q9BYF1 18-739): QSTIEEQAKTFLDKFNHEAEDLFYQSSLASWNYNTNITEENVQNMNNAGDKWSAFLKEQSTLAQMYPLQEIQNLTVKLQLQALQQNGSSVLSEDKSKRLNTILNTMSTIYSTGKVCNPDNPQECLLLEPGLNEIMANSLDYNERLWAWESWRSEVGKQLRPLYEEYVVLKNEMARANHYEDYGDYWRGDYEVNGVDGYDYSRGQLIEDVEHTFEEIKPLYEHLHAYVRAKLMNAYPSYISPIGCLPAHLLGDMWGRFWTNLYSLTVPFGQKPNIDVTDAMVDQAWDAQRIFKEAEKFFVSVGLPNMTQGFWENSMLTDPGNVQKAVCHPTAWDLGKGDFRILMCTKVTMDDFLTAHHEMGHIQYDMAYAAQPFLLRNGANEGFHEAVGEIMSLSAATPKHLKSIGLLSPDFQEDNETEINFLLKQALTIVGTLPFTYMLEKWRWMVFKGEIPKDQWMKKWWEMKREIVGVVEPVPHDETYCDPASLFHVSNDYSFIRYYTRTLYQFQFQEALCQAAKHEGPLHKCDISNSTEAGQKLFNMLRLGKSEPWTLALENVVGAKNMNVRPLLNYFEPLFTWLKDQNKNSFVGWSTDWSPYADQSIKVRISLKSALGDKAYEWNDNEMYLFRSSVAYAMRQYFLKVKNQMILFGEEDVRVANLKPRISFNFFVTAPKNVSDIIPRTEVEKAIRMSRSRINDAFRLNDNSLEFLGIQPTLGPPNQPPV

Substance: dynorphin A 1-13 (YGGFLRRIRPKLK; listed as Homo sapiens)
- hydrolysis by ACE-2 (in words): complete hydrolysis

Substance: angiotensin II (1-8) (DRVYIHPF; listed as Homo sapiens)
- hydrolysis by ACE-2 (in words): hydrolyze

From patent publication US7045532B2 (Millennium Pharmaceuticals, Inc., priority 1999, dated 2006)
